Results from PubChem BioAssay AID1671194 (National Center for Advancing Translational Sciences (NCATS), 2021).
In all, about 140,000 compounds went through this assay and about 240 (0.17%) were called active. This list was built around the results that the source calls inconclusive (neither active nor inactive); the mix of calls is not that of the screen. Calls follow the shape of the dose curve; as a rule, active = well fitted inhibition curve with a large enough effect; inconclusive = small, poorly fitted or top-dose-only effect; inactive = no such curve, though single readings can be large or run the other way. Potencies of inconclusive entries are doubtful fits and often do not repeat.

Experiment: Primary qHTS assay for inhibitors of alpha-synuclein gene (SNCA) expression; also: nearly all actives have a fitted effect of over 45% in size;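 as to activity change, negative = inhibition: plate controls were DMSO cells for no effect and cell-free wells for full effect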
Details: HEK-293 SNCA-luciferase knock-in, luminescence, 24 h; activity change, negative = inhibition: at 57.2 µM (top of the series) unless noted
Potency is read from the fitted curve at half-maximal effect; tags tell the direction and shape of the fitted curve.

Structure (SMILES)	Potency	activity change, negative = inhibition
Cc1noc(C)c1[S+](=O)([O-])N1CCC(c2nn(-c3ccccn3)c(=O)[nH]2)CC1	inconclusive: 1.12 µM [inhibitor, full curve, poor fit]	–
O=C(NCc1ccc(F)cc1)c1cc(-c2ccc(Cl)cc2Cl)c2nncn2n1	inconclusive: 56.2 µM [inhibitor, single point]	–
Cc1cc(C)n(CC(=O)N2CCC3(CC2)NCCc2c3[nH]c3ccccc23)n1	inconclusive: 20 µM [inhibitor, single point]	–
Nc1nc(Cl)nc2c1ncn2[C@H]1C[C@H](O)[C@@H](CO)O1	inconclusive: 7.64 µM [inhibitor, full curve, poor fit]	–
CC(=O)Nc1cccc(-c2n[nH]c3c2CC(=O)N(Cc2ccccc2)C3)c1	inconclusive: 31.6 µM [inhibitor, single point]	–
Cc1cc(=O)n(CC(=O)Nc2ccc(F)c(Cl)c2)c(N2CCc3ccccc3C2)n1	inconclusive: 35.5 µM [inhibitor, single point]	–
Cc1ccc(C(=O)NC2CCc3nnc(C4CC4)n3CC2)c(=O)[nH]1 (stereo unspecified)	–	inactive: 16.3%
CC(C)C[C@H](CO)NC(=O)C[C@@H]1c2nc(NC(=O)C(C)(C)C)sc2C[C@@H]2[C@](C)(CO)[C@H](O)CC[C@]21C	inconclusive: 3.98 µM [inhibitor, full curve, poor fit]	–
c1ccc(Cn2cc(CN3CCN(c4ccncc4)CC3)c(-c3cc4ccccc4o3)n2)cc1	–	inactive: -13%
O=C(NCc1nnc2ccc(-c3ccccc3)nn12)c1cccc(Cl)c1	inconclusive: 39.8 µM [inhibitor, single point]	–
COc1ccc(CNC(=O)c2ccc(Cn3ccn4nc5c(c4c3=O)CCCC5)cc2)c(OC)c1	inconclusive: 39.8 µM [inhibitor, single point]	–
CN(CC1CCOCC1)C(=O)CCCc1ccccc1	–	inactive: 121%
COc1ccc(N2CCN(C(=O)c3ccc(NC(=O)c4nsc5ccccc45)cc3)CC2)cc1	inconclusive: 3.55 µM [inhibitor, partial curve, poor fit]	–
COc1ccccc1CN1CCC2(CC1)OC(=O)N(Cc1ccccc1)C2(C)c1ccccc1 (stereo unspecified)	inconclusive: 5.62 µM [inhibitor, single point]	–
COc1ccc(Cn2c(C3CCN(C(=O)Cc4cccc(OC)c4)CC3)n[nH]c2=O)cc1	–	inactive: 6.59%
CCc1ccc(CNC(=O)C2CCCCC(=O)N2C)cc1 (stereo unspecified)	–	inactive: 0.0393%
COc1ccc(-c2nc(-c3ccccc3)nc3c2CN(C(=O)C2CC2)CC3)cc1	–	inactive: -7.86%
O=C(c1ccccc1)N1CCC2(CC1)CC(c1cccnc1)=NO2	inconclusive: 25.1 µM [inhibitor, single point]	–
O=C(NCC1CC1)C1Cn2cccc2C(=O)N1Cc1ccccc1 (stereo unspecified)	inconclusive: 3.16 µM [inhibitor, single point]	–
Cc1ccc(CSc2oc(-c3ccco3)nc2S(=O)(=O)c2ccc(Br)cc2)cc1	–	inactive: -22.6%
O=C(CC1CCN(S(=O)(=O)c2ccccc2)C1)NCc1ccccc1 (stereo unspecified)	inconclusive: 0.708 µM [inhibitor, full curve, poor fit]	–
CNC(=O)N1CCC(C2CCN(C(=O)COc3cccc(C)c3)C2)CC1 (stereo unspecified)	inconclusive: 28.2 µM [inhibitor, single point]	–

Structure (SMILES)	Potency	activity change, negative = inhibition
O=c1c(N2CCN(c3ccccc3)CC2)csc2ccc(Cl)cc12	inconclusive: 2.24 µM [inhibitor, single point]	–
O=C(CSc1ncc2c(n1)-c1cc(Cl)ccc1N(Cc1ccccc1)S2(=O)=O)Nc1ccc(F)cc1F	–	inactive: -5.16%
CN(CC1(C)CCOCC1)C(=O)c1c(F)cccc1Cl	inconclusive: 8.91 µM [inhibitor, full curve, poor fit]	–
CC1CCCN(c2ncnc3c2cnn3-c2ccc(F)cc2)C1 (stereo unspecified)	inconclusive: 8.91 µM [inhibitor, full curve, poor fit]	–
Cc1ccc(S(=O)(=O)N2CCc3cc(C(=O)N(C)Cc4ccccc4)ccc32)cc1	inconclusive: 31.6 µM [inhibitor, single point]	–
COc1ccc(S(=O)(=O)c2c(O)c(C)cc(NS(=O)(=O)c3ccc(Cl)cc3)c2C(C)C)cc1	inconclusive: 22.4 µM [inhibitor, single point]	–
Cc1ccc(-c2ccc3nnc(CNC(=O)Cc4cccc(F)c4)n3n2)cc1C	–	inactive: -9.52%
CCNC(=O)N1CCC(Oc2ccc(-c3noc(-c4ccccc4)n3)cc2)C1 (stereo unspecified)	inconclusive: 10 µM [inhibitor, partial curve, poor fit]	–
O=C(NCCc1nccc(-c2ccccc2)n1)[C@H]1CCC[C@H](O)C1	inconclusive: 2.82 µM [inhibitor, single point]	–
O=C(NCc1cccc(F)c1)c1cnc2c(c1)N(C(=O)CCc1ccccc1)CCC2	inconclusive: 50.1 µM [inhibitor, single point]	–
COc1ccc(C(CNC(=O)COc2cc(C)cc(C)c2)N2CCCCC2)cc1 (stereo unspecified)	–	inactive: 28.9%
CC(C)CN1C(=O)c2cccn2CC1C(=O)O (stereo unspecified)	inconclusive: 39.8 µM [inhibitor, single point]	–
COc1cc(C(=O)N2CCN(CCc3ccncc3)CC2)cc(OC)c1OC	inconclusive: 2.82 µM [inhibitor, single point]	–
O=C(NCC1CCCCC1)c1ccc2c(c1)N(S(=O)(=O)c1ccccc1)CC2	–	inactive: -21.3%
Cc1nn2c(c1-c1ccccc1OCc1ccccc1)N(CC1CC1)CCC2	inconclusive: 3.16 µM [inhibitor, full curve, poor fit]	–
CNC(=O)[C@@H]1CN(Cc2ccc(Br)o2)C[C@H]1c1nc(COC)no1	inconclusive: 39.8 µM [inhibitor, single point]	–
Cc1ccc(Oc2c(CCC(=O)NC(C)C)c(C)nn2-c2ccccc2)cc1	–	inactive: -11.5%
O=C(c1cc(C(F)(F)F)cc(C(F)(F)F)c1)N1CCC2(CC1)CN(c1ccccn1)C2	inconclusive: 39.8 µM [inhibitor, single point]	–
C=CCN1CCN(Cc2cccc(OCC(O)CN(C)C3CCCCC3)c2)CC1 (stereo unspecified)	–	inactive: -3.28%
Cc1ccccc1Oc1ncccc1CNC(=O)c1cnn2ccccc12	inconclusive: 8.91 µM [inhibitor, partial curve, poor fit]	–
CCOc1ccc(N(Cc2ccccc2)C(=O)c2nc(SCC)ncc2Cl)cc1	inconclusive: 25.1 µM [inhibitor, single point]	–
CC1CCN(C(=O)CSc2c3c(nc4ccc(Cl)cc24)CCCC3)CC1	inconclusive: 15.8 µM [inhibitor, single point]	–

Structure (SMILES)	Potency	activity change, negative = inhibition
COc1ccc2nc(NC(=O)c3nc(S(=O)(=O)Cc4ccccc4F)ncc3Cl)sc2c1	inconclusive: 22.4 µM [inhibitor, partial curve, poor fit]	–
CCOCCNc1ncnc2c1CN(C1CCCNC1)C(=O)CN2C (stereo unspecified)	inconclusive: 2.82 µM [inhibitor, single point]	–
COc1cccc(CCC(=O)N2C[C@@H](CO)[C@H](c3ccccn3)C2)c1	inconclusive: 39.8 µM [inhibitor, single point]	–
COc1cc(F)ccc1-c1nc(N2CCOCC2)cc2c1CN(c1ccccc1)C2=O	–	inactive: -26.4% [at 87.6 µM]
O=C(NCc1ccc(F)cc1)c1c(-c2ccccc2)cc(=O)n2c1CCCC2	–	inactive: -19.8%
O=C(CC1CCCCC1)N1CCC(n2cc(-c3nc(-c4ccccc4)no3)nn2)CC1	–	inactive: 12.6%
FC(F)(F)c1ccccc1-c1cc(-c2cccnc2)c2cncn2c1	inconclusive: 39.8 µM [inhibitor, partial curve, poor fit]	–
COCCNC(=O)c1cc(C2CC2)nc2c1c(C1CCCNC1)nn2C (stereo unspecified)	inconclusive: 44.7 µM [inhibitor, single point]	–
CC(C)(C)CC(=O)N1CCN(c2nc(-c3ccccc3)nc3c2CCC3)CC1	inconclusive: 8.91 µM [inhibitor, partial curve, poor fit]	–
COc1ccc(S(=O)(=O)NCc2cccn2Cc2cccc(C)c2)cc1Cl	inconclusive: 39.8 µM [inhibitor, single point]	–
O=C(c1ccc(F)cc1)N1CCC(C(=O)N2CCC(N3CCOC3=O)CC2)CC1	–	inactive: 11.3%
COc1ccc(-c2nc(SCC(=O)Nc3ccccc3)c(-c3ccc(F)cc3)[nH]2)cc1OC	inconclusive: 20 µM [inhibitor, single point]	–
CN(C)CCNC(=O)c1nc2nc(-c3ccccc3)c(-c3ccncc3)cc2n1C	–	inactive: 7.34% [at 87.6 µM]
COCCNC(=O)c1cc(-c2ccc(Cl)cc2Cl)nc2c1cnn2C	–	inactive: -3.18%
C#CCNC(=O)c1nc(-c2ccc(Cl)cc2)c2cnccn12	–	inactive: -0.677% [at 87.6 µM]
CCOc1ccc(CCNC(=O)c2nn(C)c3c2CSc2ccccc2-3)cc1	inconclusive: 0.178 µM [inhibitor, full curve, poor fit]	–
c1ccc([C@@H]2CN(C3CCOCC3)C[C@H]2COc2cccnc2)nc1	–	inactive: 6.42%
O=C1COc2ccc(NCCOc3ccccc3)nc2CN1Cc1ccccc1F	inconclusive: 11.2 µM [inhibitor, partial curve, poor fit]	–
Cc1ccccc1S(=O)(=O)N1CCC(n2cnnc2-c2ccccc2)CC1	–	inactive: -14.8%
O=C1CN(C(=O)COc2ccc(Cl)cc2Cl)C(c2ccccc2)c2cc(F)ccc2N1 (stereo unspecified)	inconclusive: 39.8 µM [inhibitor, single point]	–
Cc1cc(C(=O)Nc2ccc([C@@H](O)[C@H]3COCC(=O)N3CC(C)C)cc2)n(C)n1	inconclusive: 25.1 µM [inhibitor, single point]	–
COc1ccc2c(c1)CCc1c(C(=O)Nc3c(C)nn(Cc4ccccc4)c3C)noc1-2	inconclusive: 39.8 µM [inhibitor, single point]	–
